In the supplement of paper PMC11880418:
Counter-ions that a name gives are not always drawn. The list shows a part of the results. The data scatter; read single values as rough.

Columns and labels:
Test in all cases: ALDHbr (CSC) cell proportion score relative to DMSO vehicle (ratio to DMSO); breast (SUM159) / gastric (MKN45) / pancreatic (PANC1) / colon cancer lines; ALDHbr cells have high ALDH activity and are rich in cancer stem cells (CSC); higher = more CSC (ALDHbr) cells remaining
Conditions in all cases: 10 µM; 72 h
MKN45 = system: MKN45
PANC1 = system: PANC1
SUM159 = system: SUM159
T84 = system: T84
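Also: High-content imaging of ALDEFLUOR-stained cells with Hoechst-labelled nuclei in 384-well plates, triplicate wells, scored as Z-score against 0.1% DMSO vehicle, negative meaning fewer ALDHbr cells.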

| Structure (SMILES) | ALDHbr (MKN45) | ALDHbr (PANC1) | ALDHbr (SUM159) | ALDHbr (T84) |
| --- | --- | --- | --- | --- |
| CCCNC(C)(C)COC(=O)c1ccccc1 [Meprylcaine hydrochloride] | 1.15 | 1.03 | 1.05 | 1 |
| C1N2CN3CN1CN(C2)C3 [Methenamine] | 1.08 | 0.929 | 0.958 | 1.07 |
| CC1CC(OC(=O)c2ccccc2O)CC(C)(C)C1 (centres undefined) [Homosalate] | 0.904 | 0.951 | 1.01 | 1.01 |
| CC(C)NCC(O)c1ccc2ccccc2c1 (centres undefined) [Pronethalol hydrochloride] | 1.19 | 0.863 | 1.15 | 0.986 |
| Nc1nc2n[nH]nc2c(=O)[nH]1 [Azaguanine-8] | 0.596 | 0.427 | 0.82 | 0.528 |
| N=C(N)NS(=O)(=O)c1ccc(N)cc1 [Sulfaguanidine] | 0.978 | 1.01 | 1.03 | 0.869 |
| O=C1CCc2cc(OCCCCc3nnnn3C3CCCCC3)ccc2N1 [Cilostazol] | 0.565 | 0.147 | 1.36 | 0.956 |
| CCCCC[C@H](O)/C=C/[C@H]1[C@H](O)CC(=O)[C@@H]1CCCCCCC(=O)O [Alprostadil] | 0.862 | 0.644 | 1.62 | 0.801 |
| Cc1nc(=O)c2cc(CN(C)c3ccc(C(=O)N[C@@H](CCC(=O)O)C(=O)O)s3)ccc2[nH]1 [Raltitrexed] | 0.239 | 1.36 | 0.855 | 0.365 |
| CC(=O)N(CC(O)CO)c1c(I)c(C(=O)NCC(O)CO)c(I)c(C(=O)NCC(O)CO)c1I (centres undefined) [Iohexol] | 1.01 | 0.873 | 0.966 | 1.12 |
| Clc1cccc(Cl)c1NC1=NCCN1 [Clonidine hydrochloride] | 0.969 | 0.965 | 0.867 | 0.912 |
